The campaign covered roughly 50,000 compounds. About 800 (1.6%) showed an effect of 50% or more. The list shows a part of the results.

The test addresses Bcl-2-like protein 10 (Homo sapiens) (UniProt Q9HD36). As to the kind of experiment: Phenotype converters, Bcl-B/TR3 peptide binding displacement, primary biochemical FP (AID 1240).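 Also: 0% = Bcl-B with tracer peptide and DMSO and 100% = tracer peptide lacking Bcl-B.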 The conditions noted are these: GST-Bcl-B / FITC-TR3 peptide fluorescence polarization; stronger effect = higher value; compound at 3.75 mg/L.
UniProt Q9HD36, sequence (Q9HD36 whole entry, looked up): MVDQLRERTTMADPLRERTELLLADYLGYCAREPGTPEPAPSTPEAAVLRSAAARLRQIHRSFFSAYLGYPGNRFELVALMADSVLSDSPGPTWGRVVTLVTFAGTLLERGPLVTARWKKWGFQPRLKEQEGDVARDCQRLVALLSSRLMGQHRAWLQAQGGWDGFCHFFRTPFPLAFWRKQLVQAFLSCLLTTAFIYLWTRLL
Consider `Cc1ccc(-c2nn(CCC#N)cc2/C=N/O)o1`, for which the displacement was 4.6%.

For the molecule `O=S(=O)(NCc1ccccn1)c1ccc(Br)cc1Br`, the displacement came out at 9.2%.

In the case of `Cc1cnc(NC(=O)C2CC3CCC2C3)s1` (stereo unspecified), the displacement came out at 14.8%.

For the molecule `Cc1ccccc1C(=O)Nc1ccc(S(=O)(=O)Nc2ncccn2)cc1`, the displacement was -5.8%.

With `S=c1[nH]nc(-c2cccc(Cl)c2)n1-c1ccccc1`, the displacement was 5.7%.

Consider `CCCCOc1ccc(C(=O)NCc2ccc3c(c2)OCO3)cc1`, for which the displacement was -11.5%.

Regarding `O=C(Cn1cc(/C=C2/C(=O)NC(=O)N(c3ccccc3F)C2=O)c2ccccc21)Nc1ccccc1`, the displacement was determined as 51.1%.

Consider `FC(F)(F)c1cccc(Nc2nc(-c3ccccc3)cs2)c1`, for which the displacement came out at 8.1%.

Regarding `COc1cccc(N(CC(=O)Nc2cccc(Br)c2)S(=O)(=O)c2ccccc2)c1`, the displacement worked out at 4.4%.

For `COc1ccc(C(=O)Nc2ccc(Br)cc2C)c(OC)c1`, the displacement stood at 23.1%.

Consider `CCOc1ccc(N2C(=O)c3ccccc3NC2c2ccc(C)cc2)cc1` (stereo unspecified), for which the displacement amounted to 0.4%.

On to `O=C(c1sc2ccccc2c1Cl)N1CCN(C/C=C/c2ccccc2)CC1`, for which the displacement was -8.1%.

`C/C(=N\Nc1nnc(-c2ccccc2)c(-c2ccccc2)n1)c1ccc(C)cc1`: the displacement is 3.2%.

As for `O=C1c2ccccc2NC(c2ccc3c(c2)OCO3)N1Cc1ccco1` (stereo unspecified), the displacement came out at 14.2%.

As for `CCCCc1nnc(NC(=O)CCN2C(=O)/C(=C/c3ccccc3)SC2=S)s1`, the displacement was 2.5%.

For the molecule `CCc1nn2c(N)c(C=C3C=CC(=O)C=C3)c(=O)nc2s1`, the displacement amounted to 1.9%.

For the molecule `O=C1CC(c2cc([N+](=O)[O-])c(Cl)cc2Cl)=NO1`, the displacement is 18.8%.

On to `COc1ccc(-n2nc3ccc(NC(=O)COc4ccccc4Cl)cc3n2)cc1`, for which the displacement worked out at 19.9%.

Turning to `CSc1ccc(CN2CCN(C(=O)c3cccs3)CC2)cc1`, the displacement was -2.2%.

For the molecule `O=C(NCc1cccnc1)/C(=C/c1ccc(-c2cccc(Cl)c2)o1)NC(=O)c1ccccc1`, the displacement worked out at 15.2%.

Turning to `COC(=O)c1c(NC(=O)C2CC2c2ccccc2)sc(C)c1C` (stereo unspecified), the displacement turned out to be 2.6%.

`O=C(COc1ccc(Cl)cc1Cl)Nc1ccc(I)cc1Cl`: the displacement amounted to 12.3%.

In the case of `Cc1ccc2c(c1)N(C(=O)CN1C(=O)C3CCCCC3C1=O)C(C)(C)c1ssc(=S)c1-2` (stereo unspecified), the displacement amounted to 7.6%.

Regarding `Cc1ccccc1N(CC(=O)NCCc1ccc(Cl)cc1)S(=O)(=O)c1ccccc1`, the displacement was 7.4%.

`Cc1occc1C(=O)NNC(=O)c1cccc(F)c1`: the displacement was -8.4%.

Turning to `Cc1ccc(CN2CCN(/N=C/c3ccc(Br)s3)CC2)cc1`, the displacement was 8.3%.

On to `Cn1c(-c2ccccn2)nc2ccccc21`, for which the displacement amounted to 31.1%.

As to `COC(=O)C1=C(C)N(C)C(C)=C(C(=O)OC)C1c1ccc(OC)cc1OC`, the displacement was -0.8%.

On to `CC1=NN(C(=O)c2cccnc2)C(O)(c2ccccc2)C1` (stereo unspecified), for which the displacement is -6.3%.

For `COc1ccc(-c2cc(C(=O)NCCc3ccccc3)c3ccccc3n2)cc1OC`, the displacement was -5.6%.

On to `CC(/C=C1\SC(=S)N(NC(=O)c2cccc(O)c2)C1=O)=C\c1ccccc1`, for which the displacement came to 2.3%.
